Test results published in the supplement of paper PMC12217912.
The other results are listed elsewhere or left out. Sequences were assembled here from the parent chain. Values near 0.05 are background.

B1: TEV protease; numbered along this chain (parent)
chain: MGESLFKGPRDYNPISSSICHLTNESDGHTTSLYGIGFGPFIITNKHLFRRNNGTLVVQSLHGVFKVKDTTTLQQHLVDGRDMIIIRMPKDFPPFPQKLKFREPQREERICLVTTNFQTKSMSSMVSDTSCTFPSGDGIFWKHWIQTKDGQCGSPLVSTRDGFIVGIHSASNFTNTNNYFTSVPKNFMELLTNQEAQQWVSGWRLNADSVLWGGHKVFMVKPEEPFQPVKEATQL

Variants of: B1
Assay: raw area under fraction-flipped curve 0-4 h after induction (AUC4h, not background-subtracted), DNA-recorder readout of cleavage of the substrate (dimensionless); higher = more cleavage of the substrate by the protease variant
Conditions: temperature: 34 °C; time window: 0-4 h after rhamnose induction
Procedure: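 In vivo DNA recorder in E. coli TOP10(DE3) ΔrhaA at 34 °C. Each TEVp single-site mutant (parent TEVp 0) is paired with a single-site variant of the 7-mer TEVs (canonical ENLYFQ|S). The substrate sits between flexible linkers in a Bxb1-sfGFP-TEVs-SsrA fusion, so cleavage stabilises Bxb1 and speeds flipping of a recombination array, read by NGS. The value is the raw area under the fraction-flipped curve over 0-4 h after rhamnose induction (AUC4h), with ≥20 reads per time point. It is not background-subtracted; inactive controls average about 0.047.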
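Also: Bxb1 expression induced with 0.2% (w/v) L-rhamnose at OD600 near 0.5, cultures sampled hourly, flipped fraction per protease–substrate barcode pair counted by paired-end Illumina sequencing.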

Row | Variant | area with substrate ANLYFQS | area with substrate CNLYFQS | area with substrate DNLYFQS | area with substrate HNLYFQS | area with substrate INLYFQS | area with substrate LNLYFQS | area with substrate NNLYFQS | area with substrate PNLYFQS | area with substrate RNLYFQS | area with substrate SNLYFQS | area with substrate TNLYFQS | area with substrate VNLYFQS | area with substrate WNLYFQS | area with substrate YNLYFQS | area with substrate FNLYFQS | area with substrate GNLYFQS | area with substrate KNLYFQS | area with substrate MNLYFQS | area with substrate QNLYFQS
1 | T31W | 0.0659 | 0.0838 | 0.0744 | 0.0511 | 0.0547 | 0.0659 | 0.0608 | 0.0593 | 0.0573 | 0.0577 | 0.0576 | 0.0703 | 0.0722 | 0.0484 | – | – | – | – | –
2 | P155W | 0.0487 | 0.0671 | 0.0576 | 0.08 | 0.0487 | 0.0623 | 0.0432 | 0.0547 | 0.057 | 0.0526 | 0.0568 | – | 0.0532 | 0.0416 | 0.0404 | 0.0526 | 0.0512 | 0.0478 | 0.0655
3 | T129Q | 0.0785 | 0.0926 | 0.0626 | 0.0468 | 0.0611 | 0.0575 | 0.003 | – | – | 0.0639 | 0.0576 | 0.071 | – | 0.0691 | – | – | 0.0562 | – | –
4 | Q75C | 0.0686 | 0.0562 | 0.0891 | 0.0691 | 0.0777 | 0.0588 | 0.0796 | 0.0653 | 0.0546 | 0.063 | 0.0535 | 0.0622 | 0.058 | – | 0.0442 | 0.0639 | – | 0.0616 | 0.0632
5 | N13G | 0.0566 | 0.0906 | 0.0712 | 0.053 | 0.0565 | 0.0653 | – | 0.0676 | – | 0.0635 | 0.0592 | 0.0798 | 0.0577 | 0.0617 | – | 0.0658 | 0.0515 | 0.0667 | –
6 | G39W | 0.0442 | 0.0464 | 0.0464 | 0.0525 | – | 0.0415 | 0.0421 | 0.0367 | 0.0554 | 0.0386 | 0.0442 | 0.0685 | 0.0035 | 0.0449 | 0.0429 | – | 0.0592 | – | –
7 | R10C | 0.0446 | 0.0756 | 0.0781 | 0.0583 | 0.0654 | 0.0703 | 0.0643 | 0.0769 | 0.0764 | 0.0474 | – | – | 0.0618 | – | 0.0638 | 0.0603 | – | 0.0512 | –
8 | D161K | 0.0572 | 0.0709 | 0.0578 | 0.0611 | 0.0507 | 0.0551 | – | 0.0614 | – | 0.0486 | 0.0711 | – | 0.0618 | 0.0345 | 0.0554 | 0.0702 | 0.0652 | 0.0281 | –
9 | N175F | 0.0615 | 0.0626 | 0.0636 | 0.0625 | – | 0.054 | 0.0485 | – | – | 0.0657 | 0.0738 | 0.0808 | 0.064 | 0.0581 | – | – | 0.0601 | 0.0742 | –
10 | R10G | 0.0656 | 0.0661 | 0.0773 | 0.0588 | 0.0718 | – | 0.0778 | 0.0734 | 0.0777 | 0.0683 | 0.0571 | 0.0487 | 0.0595 | 0.0621 | 0.0507 | 0.0729 | 0.0713 | 0.0547 | 0.06
11 | I167T | 0.0649 | 0.0592 | 0.059 | 0.0554 | – | 0.067 | 0.0585 | 0.0466 | – | 0.0604 | 0.0588 | 0.0542 | – | – | – | – | 0.0695 | – | –
12 | E103C | 0.0919 | 0.0707 | 0.047 | 0.0911 | 0.0843 | 0.0665 | 0.0983 | 0.0668 | – | – | 0.0725 | – | 0.0723 | 0.0661 | 0.0633 | 0.118 | 0.0667 | – | –
13 | N206H | 0.0819 | 0.0613 | 0.0722 | 0.0645 | 0.0753 | 0.0787 | 0.0611 | – | 0.055 | 0.042 | 0.0547 | 0.0586 | 0.0591 | 0.0662 | – | 0.0726 | – | – | –
14 | F180V | 0.0555 | 0.0751 | 0.0535 | 0.0572 | 0.0471 | 0.0694 | 0.0582 | 0.0613 | – | 0.0535 | 0.0671 | 0.0598 | 0.0557 | 0.0643 | – | – | – | 0.0556 | 0.062
15 | W141M | 0.0667 | 0.0637 | 0.0691 | 0.0283 | 0.0503 | 0.0518 | 0.0321 | 0.0522 | 0.0334 | – | 0.0604 | 0.0737 | 0.0482 | 0.042 | 0.0552 | 0.0478 | 0.0633 | – | –
16 | V67D | 0.042 | 0.0532 | 0.051 | 0.0397 | 0.0466 | – | 0.0628 | 0.0507 | – | 0.0496 | 0.061 | – | 0.0472 | 0.0322 | 0.0437 | 0.0494 | 0.0248 | 0.047 | 0.063
17 | Y12K | 0.0385 | 0.0691 | 0.078 | 0.073 | – | – | 0.0655 | 0.0681 | 0.0539 | 0.0575 | 0.073 | – | 0.0551 | 0.032 | – | – | 0.0614 | – | 0.0585
18 | H29E | 0.0721 | 0.0851 | 0.0665 | 0.0741 | 0.0649 | 0.066 | – | 0.078 | 0.0694 | 0.0592 | 0.072 | – | 0.0441 | 0.0646 | – | 0.0635 | 0.0673 | 0.0703 | 0.0644
19 | L205W | 0.0458 | 0.0454 | 0.0632 | 0.0647 | 0.0572 | 0.0443 | – | 0.0504 | – | 0.057 | 0.0475 | – | 0.0514 | 0.0575 | – | 0.0605 | 0.0557 | – | –
20 | G2M | 0.0718 | 0.0655 | 0.0879 | – | – | 0.0785 | – | 0.0771 | – | 0.0752 | 0.054 | – | 0.052 | – | 0.0513 | – | 0.0707 | – | –
21 | C20F | 0.0487 | 0.0648 | 0.1 | 0.0567 | 0.0521 | – | 0.0377 | 0.0644 | 0.0477 | 0.0569 | 0.0448 | 0.0294 | 0.049 | – | 0.068 | – | 0.0581 | 0.0549 | –
22 | N45H | 0.0593 | 0.0529 | 0.0551 | 0.0517 | 0.0378 | 0.0653 | 0.0578 | 0.0655 | – | – | 0.0717 | – | 0.0537 | 0.0592 | – | 0.0576 | 0.084 | 0.0597 | –
23 | F49V | 0.0415 | 0.0492 | 0.0848 | – | 0.0567 | 0.0617 | 0.0528 | 0.0504 | – | 0.0581 | 0.0492 | – | – | – | 0.0547 | – | 0.084 | 0.0581 | –
24 | T23R | 0.063 | 0.08 | 0.0604 | 0.0678 | – | 0.0764 | – | 0.0634 | 0.0425 | 0.0509 | 0.06 | – | 0.0597 | – | – | 0.0883 | – | 0.0627 | –
